Measured values: the supplement of paper PMC8285479
Where a name gives a salt, the structure may show the parent alone. ± gives the standard deviation of the averaged measurements. Over roughly 1,900 compounds, “normalised cell viability (NPI; 0 = phenylarsine oxide control, 1 = DMSO control)” has its median near 1; the lowest 2% begin near 0.039. This is one part of the list.

Tested on: NCI-H1944
Test: normalised cell viability (NPI; 0 = phenylarsine oxide control, 1 = DMSO control) (fraction of DMSO control); NCI-H1944 is a non-small cell lung cancer line; higher = more viable cells (less compound toxicity)
Settings: 6 days
[1] = glucocorticoid arm: hydrocortisone 2.75 uM co-treatment, compound 1 µM
[2] = glucocorticoid arm: hydrocortisone 2.75 uM co-treatment, compound 5 µM
[3] = glucocorticoid arm: hydrocortisone 2.75 uM pre-treated 2 days and continued, compound 1 µM
[4] = glucocorticoid arm: hydrocortisone 2.75 uM pre-treated 2 days and continued, compound 5 µM
[5] = glucocorticoid arm: vehicle, compound 1 µM
[6] = glucocorticoid arm: vehicle, compound 5 µM
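Also: CTB read-out in 384-well plates, mean of triplicate wells, normalised per plate against 1 µM phenylarsine oxide and 0.1% DMSO, compounds added 24 h after seeding.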

| Compound | normalised cell viability [1] | normalised cell viability [2] | normalised cell viability [3] | normalised cell viability [4] | normalised cell viability [5] | normalised cell viability [6] |
| --- | --- | --- | --- | --- | --- | --- |
| CC(C)=CCC/C(C)=C/CC/C(C)=C/CSc1ccccc1C(=O)O [Farnesylthiosalicylic acid] | 0.993 ± 0.018 | 0.996 ± 0.027 | 0.9933 ± 0.0072 | 0.975 ± 0.013 | 1.002 ± 0.0068 | 1.001 ± 0.0078 |
| CCCCCOC(=O)Nc1nc(=O)n([C@@H]2O[C@H](C)[C@@H](O)[C@H]2O)cc1F [Capecitabine] | 1.02 ± 0.01 | 0.871 ± 0.044 | 1 ± 0.015 | 0.919 ± 0.05 | 1.001 ± 0.0076 | 0.61 ± 0.039 |
| COc1ccc2cc(-c3nc(-c4ccc([S+](C)[O-])cc4)[nH]c3-c3ccncc3)ccc2c1 (centres undefined) [Tie2 kinase inhibitor] | 1 ± 0.016 | 1.002 ± 0.0072 | 0.992 ± 0.0087 | 1 ± 0.018 | 0.997 ± 0.0017 | 0.9943 ± 0.0098 |
| CCN(CC)CCOc1ccc(C(=C(Cl)c2ccccc2)c2ccccc2)cc1 [Clomifene citrate] | 0.946 ± 0.014 | 0.804 ± 0.044 | 0.966 ± 0.017 | 0.969 ± 0.012 | 0.9957 ± 0.0075 | 0.18 ± 0.023 |
| COc1ncc(-c2ccc3nccc(-c4ccnnc4)c3c2)cc1NS(=O)(=O)c1ccc(F)cc1F | 0.264 ± 0.0058 | 0.231 ± 0.027 | 0.365 ± 0.025 | 0.249 ± 0.02 | 0.0495 ± 0.0081 | 0.0214 ± 0.0013 |
| N=C(N)NCCCCN [Agmatine sulfate] | 1.017 ± 0.0058 | 1 ± 0.025 | 1.003 ± 0.0058 | 1 ± 0.025 | 0.986 ± 0.012 | 0.997 ± 0.011 |
| C=C(C)C(CC=C(C)C)CC12CC(CC=C(C)C)C(C)(C)C(CC=C(C)C)(C(=O)C(=C(O)c3ccc(O)c(O)c3)C1=O)C2=O (centres undefined) [Garcinol] | 1 ± 0.012 | 1.01 ± 0.013 | 0.992 ± 0.014 | 0.997 ± 0.027 | 1.007 ± 0.0052 | 1.001 ± 0.01 |
| CCN1C(=CC(C)=O)Sc2ccc(OC)cc21 | 0.982 ± 0.01 | 0.823 ± 0.013 | 0.994 ± 0.017 | 0.839 ± 0.021 | 1.01 ± 0.01 | 0.983 ± 0.017 |
| Cc1cnc(C(=O)NCCc2ccc(S(=O)(=O)NC(=O)NC3CCCCC3)cc2)cn1 [Glipizide] | 1.01 ± 0.018 | 1.02 ± 0.01 | 1.01 ± 0.011 | 1.03 ± 0.02 | 1.01 ± 0.013 | 1.006 ± 0.0075 |
| CC(C)NC[C@H](O)COc1cccc2[nH]ccc12 [S(-)-Pindolol] | 0.984 ± 0.023 | 0.984 ± 0.023 | 0.9967 ± 0.0035 | 0.949 ± 0.022 | 0.9777 ± 0.0015 | 0.9807 ± 0.0038 |
| COc1ccccc1N1CCN(CCCCNC(=O)c2ccc3ccccc3c2)CC1 | 0.9887 ± 0.0098 | 0.984 ± 0.026 | 0.998 ± 0.014 | 0.988 ± 0.032 | 0.9913 ± 0.0029 | 0.961 ± 0.033 |
| Cn1cc(-c2[nH]c3cc(NC(=O)[C@H](N)C4CCCCC4)cc4c3c2C=NNC4=O)cn1 | 0.76 ± 0.008 | 0.503 ± 0.039 | 0.9733 ± 0.0038 | 0.848 ± 0.026 | 0.441 ± 0.069 | 0.208 ± 0.0058 |
| CC1(C)CNc2cc(NC(=O)c3cccnc3NCc3ccncc3)ccc21 [Motesanib Diphosphate] | 1.02 ± 0.011 | 1 ± 0.031 | 1 ± 0.012 | 0.992 ± 0.026 | 1.001 ± 0.0076 | 1.002 ± 0.0076 |
| COCCOc1ccc2c(c1)ncn2-c1ccc2cccc(N3CCC(N)CC3)c2n1 | 1.103 ± 0.011 | 1.04 ± 0.017 | 1.07 ± 0.011 | 1.11 ± 0.023 | 0.9803 ± 0.0067 | 0.426 ± 0.044 |
